Reference: the supplement of paper PMC4604168 (melanoma cell lines)
Some of the results follow. Repeats are few or missing, and single values can be far off.

Key:
Experiment in all cases: cell count relative to DMSO control; melanoma cells; higher = more viable cells
Settings in all cases: library dose: low library concentration; 72 h
[1] = system: MZ2-MEL
[2] = system: MeWo
[3] = system: RPMI7951
[4] = system: RVH-421
[5] = system: SkMel28
[6] = system: SkMel2
[7] = system: SkMel30
[8] = system: UACC62
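Also: cell number obtained by counting DAPI-stained nuclei in high-throughput microscope images with image analysis software, screen run in 1,536-well plates.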

Row | SMILES | cell count [1] [%] | cell count [2] [%] | cell count [3] [%] | cell count [4] [%] | cell count [5] [%] | cell count [6] [%] | cell count [7] [%] | cell count [8] [%]
1 | CC[C@]1(O)C[C@H]2CN(CCc3c([nH]c4ccccc34)[C@@](C(=O)OC)(c3cc4c(cc3OC)N(C=O)[C@H]3[C@@](O)(C(=O)OC)[C@H](OC(C)=O)[C@]5(CC)C=CCN6CC[C@]43[C@@H]65)C2)C1 [vincristine] + Clc1ccc(Nc2nnc(Cc3ccncc3)c3ccccc23)cc1 [vatalanib] (first compound 0.0001 µM, partner dose 2 µM) | 48.1 | 57.4 | 38.6 | 90.7 | 62.4 | 52.9 | 35.9 | 54.3
2 | Cc1cc(Nc2cc(N3CCN(C)CC3)nc(Sc3ccc(NC(=O)C4CC4)cc3)n2)n[nH]1 [Tozasertib] + CS(=O)(=O)CCNCc1ccc(-c2ccc3ncnc(Nc4ccc(OCc5cccc(F)c5)c(Cl)c4)c3c2)o1 [lapatinib] (first compound 0.006 µM, partner dose 0.8 µM) | 98.8 | 90.1 | 100 | 89.3 | 72.6 | 90.8 | 119 | 94.8
3 | Cc1cc(Nc2cc(N3CCN(C)CC3)nc(Sc3ccc(NC(=O)C4CC4)cc3)n2)n[nH]1 [Tozasertib] + CCCCCCCCc1ccc(CCC(N)(CO)CO)cc1 [fingolimod] (first compound 0.006 µM, partner dose 2 µM) | 89.5 | 97.1 | 98.2 | 106 | 81.9 | 88.8 | 109 | 88.6
4 | CC[C@]1(O)C[C@H]2CN(CCc3c([nH]c4ccccc34)[C@@](C(=O)OC)(c3cc4c(cc3OC)N(C=O)[C@H]3[C@@](O)(C(=O)OC)[C@H](OC(C)=O)[C@]5(CC)C=CCN6CC[C@]43[C@@H]65)C2)C1 [vincristine] + CN(c1ncccc1CNc1nc(Nc2ccc3c(c2)CC(=O)N3)ncc1C(F)(F)F)S(C)(=O)=O [PF562271] (first compound 0.0001 µM, partner dose 0.08 µM) | 91.4 | 80 | 59.8 | 94.7 | 61.5 | 92 | 59.6 | 43.4
5 | CC[C@]1(O)C[C@H]2CN(CCc3c([nH]c4ccccc34)[C@@](C(=O)OC)(c3cc4c(cc3OC)N(C=O)[C@H]3[C@@](O)(C(=O)OC)[C@H](OC(C)=O)[C@]5(CC)C=CCN6CC[C@]43[C@@H]65)C2)C1 [vincristine] + CN1CCN(c2ccc3nc(-c4c(N)c5c(F)cccc5[nH]c4=O)[nH]c3c2)CC1 [Dovitinib] (first compound 0.0001 µM, partner dose 0.1 µM) | 93.8 | 86.9 | 73.8 | 95.6 | 66.5 | 80.2 | 63.4 | 67.2
6 | Cc1cc(Nc2cc(N3CCN(C)CC3)nc(Sc3ccc(NC(=O)C4CC4)cc3)n2)n[nH]1 [Tozasertib] + Cn1sc(=O)n(Cc2ccccc2)c1=O [TDZD-8] (first compound 0.006 µM, partner dose 0.4 µM) | 96.2 | 104 | 92.7 | 89.2 | 85.8 | 108 | 95.4 | 84.3
7 | CC[C@]1(O)C[C@H]2CN(CCc3c([nH]c4ccccc34)[C@@](C(=O)OC)(c3cc4c(cc3OC)N(C=O)[C@H]3[C@@](O)(C(=O)OC)[C@H](OC(C)=O)[C@]5(CC)C=CCN6CC[C@]43[C@@H]65)C2)C1 [vincristine] + C[C@@H](N)c1ccc(C(=O)Nc2ccnc3[nH]ccc23)cc1 [RKI983] (first compound 0.0001 µM, partner dose 0.4 µM) | 69.1 | 60 | 46.9 | 59.2 | 56.3 | 76.2 | 50.6 | 42.7
8 | Cc1cc(Nc2cc(N3CCN(C)CC3)nc(Sc3ccc(NC(=O)C4CC4)cc3)n2)n[nH]1 [Tozasertib] + Cn1c(Nc2ccc(C(F)(F)F)cc2)nc2cc(Oc3ccnc(-c4ncc(C(F)(F)F)[nH]4)c3)ccc21 [CHIR265] (first compound 0.006 µM, partner dose 0.08 µM) | 69.1 | 67.4 | 55.9 | 70.3 | 40.2 | 71.6 | 50.2 | 51.3
9 | CC[C@]1(O)C[C@H]2CN(CCc3c([nH]c4ccccc34)[C@@](C(=O)OC)(c3cc4c(cc3OC)N(C=O)[C@H]3[C@@](O)(C(=O)OC)[C@H](OC(C)=O)[C@]5(CC)C=CCN6CC[C@]43[C@@H]65)C2)C1 [vincristine] + CC1(C)CCC(c2ccc(Cl)cc2)=C(CN2CCN(c3ccc(C(=O)NS(=O)(=O)c4ccc(N[C@H](CCN5CCOCC5)CSc5ccccc5)c(S(=O)(=O)C(F)(F)F)c4)cc3)CC2)C1 [ABT263] (first compound 0.0001 µM, partner dose 0.4 µM) | 118 | 69 | 67.7 | 58.5 | 94.5 | 97.1 | 80.9 | 83.2
10 | N#CC[C@H](C1CCCC1)n1cc(-c2ncnc3[nH]ccc23)cn1 [ruxolitinib] + O=C(/C=C/c1cccnc1)NCCCCC1CCN(C(=O)c2ccccc2)CC1 [FK866] (first compound 1 µM, partner dose 0.01 µM) | 51 | 89.3 | 93.3 | 70.8 | 107 | 62 | 113 | 125
11 | CC[C@]1(O)C[C@H]2CN(CCc3c([nH]c4ccccc34)[C@@](C(=O)OC)(c3cc4c(cc3OC)N(C=O)[C@H]3[C@@](O)(C(=O)OC)[C@H](OC(C)=O)[C@]5(CC)C=CCN6CC[C@]43[C@@H]65)C2)C1 [vincristine] + CC(=O)c1c(C)c2cnc(Nc3ccc(N4CCNCC4)cn3)nc2n(C2CCCC2)c1=O [palbociclib] (first compound 0.0001 µM, partner dose 0.04 µM) | 80.5 | 69.7 | 47.8 | 86.8 | 52.3 | 75.7 | 50.5 | 57.4
12 | N#CC[C@H](C1CCCC1)n1cc(-c2ncnc3[nH]ccc23)cn1 [ruxolitinib] + CCCS(=O)(=O)Nc1ccc(F)c(C(=O)c2c[nH]c3ncc(Cl)cc23)c1F [PLX4720] (first compound 1 µM, partner dose 0.08 µM) | 82.7 | 95.3 | 104 | 96.5 | 120 | 93.4 | 95.5 | 98.9
13 | CC[C@]1(O)C[C@H]2CN(CCc3c([nH]c4ccccc34)[C@@](C(=O)OC)(c3cc4c(cc3OC)N(C=O)[C@H]3[C@@](O)(C(=O)OC)[C@H](OC(C)=O)[C@]5(CC)C=CCN6CC[C@]43[C@@H]65)C2)C1 [vincristine] + O=C(Nc1cc(C(F)(F)F)cc(C(F)(F)F)c1)c1cc(Cl)ccc1O [IMD0354] (first compound 0.0001 µM, partner dose 0.016 µM) | 90.2 | 79.4 | 56.2 | 70.8 | 83.3 | 102 | 38.8 | 53.1
14 | Cc1cc(Nc2cc(N3CCN(C)CC3)nc(Sc3ccc(NC(=O)C4CC4)cc3)n2)n[nH]1 [Tozasertib] + COc1cc([C@@H]2c3cc4c(cc3[C@@H](O[C@@H]3O[C@@H]5CO[C@@H](C)O[C@H]5[C@H](O)[C@H]3O)[C@H]3COC(=O)[C@H]23)OCO4)cc(OC)c1O [etoposide] (first compound 0.006 µM, partner dose 0.02 µM) | 94.2 | 84.1 | 94.4 | 87.9 | 89.2 | 89.9 | 97.6 | 84.5
15 | CC[C@]1(O)C[C@H]2CN(CCc3c([nH]c4ccccc34)[C@@](C(=O)OC)(c3cc4c(cc3OC)N(C=O)[C@H]3[C@@](O)(C(=O)OC)[C@H](OC(C)=O)[C@]5(CC)C=CCN6CC[C@]43[C@@H]65)C2)C1 [vincristine] + CCCCCCCCc1ccc(CCC(N)(CO)CO)cc1 [fingolimod] (first compound 0.0001 µM, partner dose 2 µM) | 104 | 63.2 | 50.5 | 86.4 | 64.7 | 79.4 | 63.9 | 54.8
16 | N#CC[C@H](C1CCCC1)n1cc(-c2ncnc3[nH]ccc23)cn1 [ruxolitinib] + Cc1nc(Nc2ncc(C(=O)Nc3c(C)cccc3Cl)s2)cc(N2CCN(CCO)CC2)n1 [dasatanib] (first compound 1 µM, partner dose 0.004 µM) | 75.4 | 89 | 72.7 | 92.9 | 91.5 | 96.7 | 98.7 | 74.6
17 | CC[C@]1(O)C[C@H]2CN(CCc3c([nH]c4ccccc34)[C@@](C(=O)OC)(c3cc4c(cc3OC)N(C=O)[C@H]3[C@@](O)(C(=O)OC)[C@H](OC(C)=O)[C@]5(CC)C=CCN6CC[C@]43[C@@H]65)C2)C1 [vincristine] + CNC(=O)c1cc(Oc2ccc(NC(=O)Nc3ccc(Cl)c(C(F)(F)F)c3)cc2)ccn1 [sorafenib] (first compound 0.0001 µM, partner dose 0.4 µM) | 80.5 | 78.6 | 36.7 | 80.8 | 69.4 | 78.1 | 60 | 54.8
18 | CC[C@]1(O)C[C@H]2CN(CCc3c([nH]c4ccccc34)[C@@](C(=O)OC)(c3cc4c(cc3OC)N(C=O)[C@H]3[C@@](O)(C(=O)OC)[C@H](OC(C)=O)[C@]5(CC)C=CCN6CC[C@]43[C@@H]65)C2)C1 [vincristine] + CCN(CC)CCNC(=O)c1c(C)[nH]c(/C=C2\C(=O)Nc3ccc(F)cc32)c1C [sunitinib] (first compound 0.0001 µM, partner dose 0.4 µM) | 103 | 90.6 | 84.5 | 97.2 | 101 | 110 | 72.2 | 88.8
19 | CC[C@]1(O)C[C@H]2CN(CCc3c([nH]c4ccccc34)[C@@](C(=O)OC)(c3cc4c(cc3OC)N(C=O)[C@H]3[C@@](O)(C(=O)OC)[C@H](OC(C)=O)[C@]5(CC)C=CCN6CC[C@]43[C@@H]65)C2)C1 [vincristine] + Cn1nnc2c(C(N)=O)ncn2c1=O [temozolomide] (first compound 0.0001 µM, partner dose 2 µM) | 97.4 | 69.3 | 61.6 | 67.4 | 69.7 | 106 | 47.8 | 46.3
20 | N#CC[C@H](C1CCCC1)n1cc(-c2ncnc3[nH]ccc23)cn1 [ruxolitinib] + C=C(c1ccc(C(=O)O)cc1)c1cc2c(cc1C)C(C)(C)CCC2(C)C [Bexarotene] (first compound 1 µM, partner dose 2 µM) | 96.8 | 93.1 | 75 | 96.1 | 89.2 | 97.1 | 108 | 97.5
